Reference: PubChem BioAssay AID2675 (National Center for Advancing Translational Sciences (NCATS), 2010)
The whole screen tested about 280,000 compounds, of which about 100 (0.036%) were called active. Inconclusive means that the source gave no clear call. Such entries were picked first, then a sample of the others. Calls follow the shape of the dose curve; as a rule, active = well fitted inhibition curve with a large enough effect in the signal ratio, with a control signal flat (not every such curve was filed as active); inconclusive = small, poorly fitted or top-dose-only effect, or effect the other way, or a change in a side signal; inactive = no such curve, though single readings can be large or run the other way; the % refers to the signal ratio. Where the call is inconclusive, the potency comes from a doubtful curve fit. A note “side channel” means that the fit belongs to a control or component signal, not to the main read-out.

molecular target: Muscleblind-like protein 1 (Homo sapiens) (UniProt Q9NR56); experiment: qHTS Assay for Inhibitors of MBNL1-poly(CUG) RNA binding; details: TR-FRET MBNL1-His/biotin-(CUG)12 binding, 665/545 ratio; series mostly up to 57.5 µM
Procedure, shortened: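 His-tagged MBNL1 binding to biotinylated (CUG)12 RNA was measured by TR-FRET using terbium anti-His antibody (0.055 ng/ul final) and streptavidin-XL665 (5 nM final). Compounds were titrated 92 nM to 58 uM; 60 min at room temperature.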
Potency is read from the fitted curve at half-maximal effect; tags tell the direction and shape of the fitted curve or compound fluorescence and quenching.

UniProt Q9NR56, sequence (Q9NR56 whole entry, looked up): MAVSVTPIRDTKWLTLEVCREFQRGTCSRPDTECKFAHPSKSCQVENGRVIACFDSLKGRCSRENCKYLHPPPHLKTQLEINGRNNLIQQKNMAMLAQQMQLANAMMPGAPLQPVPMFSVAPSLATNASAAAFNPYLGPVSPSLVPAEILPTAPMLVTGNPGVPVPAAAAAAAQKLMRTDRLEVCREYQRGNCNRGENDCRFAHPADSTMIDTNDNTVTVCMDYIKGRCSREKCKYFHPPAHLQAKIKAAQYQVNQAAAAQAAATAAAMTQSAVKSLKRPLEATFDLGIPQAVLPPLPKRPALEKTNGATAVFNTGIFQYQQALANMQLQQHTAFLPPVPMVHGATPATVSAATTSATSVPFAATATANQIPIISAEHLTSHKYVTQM

Row | SMILES | Potency
1 | CCN1C(=O)/C(=C/C=C2/CCCN2C)OC1=S | inconclusive: 15.8 µM [quencher, side channel, partial curve]
2 | CCOC(=O)c1cc2nc(-c3ccco3)cc(C(F)(F)F)n2n1 | inconclusive: 12.6 µM [quencher, side channel, partial curve]
3 | CCSc1nnc2ccc(-c3cccs3)nn12 | inconclusive: 20 µM [quencher, side channel, partial curve]
4 | Cn1ccnc1SCC(=O)Nc1cccc2ccccc12 | inactive
5 | O=[N+]([O-])c1ccc(S(=O)(=O)CC2CSc3nc4ccccc4n32)cc1 (centres undefined) | inconclusive: 2.82 µM [quencher, side channel, full curve]
6 | COc1ccc(C(=O)NC(=S)Nc2cccc(NC(=O)c3ccco3)c2)cc1[N+](=O)[O-] | inconclusive: 0.0891 µM [fluorescent, side channel, full curve]
7 | Cn1c(CNc2cccc(Cl)c2)nnc1SCC#N | inactive
8 | Cc1ccc(S(=O)(=O)N/N=C\c2ccc(Cl)c([N+](=O)[O-])c2)cc1 | inconclusive: 39.8 µM [quencher, side channel, single point]
9 | COc1ccc2nc(NC(=O)C3COc4ccccc4O3)sc2c1 (centres undefined) | inactive
10 | COc1ccc(NC2CC(=O)N(C)C2=O)cc1 (centres undefined) | inconclusive: 28.2 µM [quencher, side channel, partial curve]
11 | CCNC(=S)N(CCCN(CC)CC)Cc1cc2cc3c(cc2[nH]c1=O)OCO3 | inactive
12 | Cc1onc(-c2c(F)cccc2Cl)c1C(=O)O/N=C(\N)c1ccc([N+](=O)[O-])o1 | inconclusive: 15.8 µM [quencher, side channel, partial curve]
13 | CC1CCCCC1NC(=O)CN(C)S(=O)(=O)c1cccc2nsnc12 (centres undefined) | inconclusive: 8.91 µM [quencher, side channel, partial curve]
14 | Nc1ncc(CCN2CCOCC2)c(-c2ccc(F)cc2)n1 | inactive
15 | Cn1ncc(Oc2ccc([N+](=O)[O-])cc2)c(Cl)c1=O | inconclusive: 12.6 µM [quencher, side channel, partial curve]
16 | O=C(/C=C\Nc1ccc(Br)cc1)c1cccnc1 | inconclusive: 28.2 µM [quencher, single point]
17 | COc1ccc(Nc2nc(NN)nc(C)c2[N+](=O)[O-])cc1 | inconclusive: 39.8 µM [quencher, single point]
18 | COc1ccc(-n2c(O)c(/C=N/NS(=O)(=O)c3ccc(C)cc3)c3ccccc3c2=O)cc1OC | inconclusive: 20 µM [quencher, side channel, partial curve]
19 | O=S1(=O)N=C(Nc2ccc(N3CCOCC3)cc2)c2ccccc21 | inconclusive: 17.8 µM [quencher, side channel, partial curve]
20 | CN(C)c1ccc(/C=C/C#N)cc1 | inconclusive: 14.1 µM [quencher, side channel, partial curve]
21 | COC(=O)c1ccccc1NC(=O)N1CCN(c2ccccc2F)CC1 | inactive
22 | CC(C)(C)c1ccc(Cn2cnc(-c3ccc([N+](=O)[O-])cc3)c2)cc1 | inconclusive: 28.2 µM [quencher, side channel, partial curve]

Row | SMILES | Potency
23 | Cc1cccc(NC(=O)CN(C2=NC3CS(=O)(=O)CC3S2)c2ccccc2F)c1 (centres undefined) | inactive
24 | COC(=O)c1cc(-c2ccc(Br)cc2)c2c(=O)[nH]c(=O)n(C)c2n1 | inactive
25 | COc1cc(C(=O)Nc2ccc(NC(=O)C3CCCCC3)nc2)cc(OC)c1OC | inactive
26 | COc1ccccc1CCC(=O)Oc1ccc(C#N)cc1OC | inactive
27 | O=C(N/N=C/c1cccnc1)c1cccc(Cl)c1 | inactive
28 | CCN(CC)c1ccc(/C=N/NS(=O)(=O)c2cccc([N+](=O)[O-])c2)cc1 | inconclusive: 28.2 µM [quencher, side channel, partial curve, poor fit]
29 | CC1(C)OC(=O)C(=NNc2ccc(Cl)cc2)C(=O)O1 | inconclusive: 14.1 µM [quencher, side channel, partial curve]
30 | Cn1c2ccccc2c2n[nH]c(=S)nc21 | inconclusive: 12.6 µM [quencher, side channel, partial curve]
31 | Cc1c(Cl)c([N+](=O)[O-])nn1Cc1ccc(C(=O)Nc2ccc(Cl)cn2)o1 | inconclusive: 14.1 µM [quencher, side channel, partial curve]
32 | Cc1ccsc1C1NC(=O)c2c(sc3c2CCN(C)C3)N1 (centres undefined) | inconclusive: 22.4 µM [quencher, side channel, partial curve]
33 | COc1ccc2nc(CC(C)(C)CC(=O)O)c[n+]([O-])c2c1 | inconclusive: 11.2 µM [quencher, side channel, partial curve]
34 | CC(=O)Nc1cccc(C(=O)/C=C/c2cccs2)c1 | inactive
35 | COc1ccc(-c2csc(/C(C#N)=C/Nc3ccc4c(c3)OCCO4)n2)cc1 | inactive
36 | C/C(=N/NC(=O)CCc1c(C)n[nH]c1C)c1cccc([N+](=O)[O-])c1 | inconclusive: 20 µM [quencher, side channel, partial curve]
37 | Nc1nc2nccc(-c3ccco3)n2n1 | inconclusive: 12.6 µM [quencher, side channel, partial curve]
38 | CC(C)(C)c1cc(Cc2ccccc2)[nH]n1 | inactive
39 | CCCOc1ccc2nc(NC(=O)OC)[nH]c2c1 | inconclusive: 31.6 µM [fluorescent, side channel, partial curve]
40 | CCOc1ccc(NC(=S)N(CC)Cc2ccccc2)cc1 | inactive
41 | CC1CCc2nc(/C(C#N)=C/c3cccnc3)sc2C1 (centres undefined) | inconclusive: 15.8 µM [quencher, side channel, partial curve]
42 | COc1cccc(Nc2ccc(C(=O)O)cc2[N+](=O)[O-])c1 | inconclusive: 25.1 µM [quencher, side channel, partial curve]
43 | Fc1ccc(C(CCNCc2cccs2)c2ccco2)cc1 (centres undefined) | inactive
44 | O=[N+]([O-])c1ccn(-c2nc(-c3ccccc3)cc(C(F)(F)F)n2)n1 | inconclusive: 3.16 µM [quencher, side channel, full curve]
